The other results are listed elsewhere or left out.

The chains are these.
T1: UNK ZnF1-6 (called full-length) (human, UniProt Q9C0B0 30-357)
T1 sequence: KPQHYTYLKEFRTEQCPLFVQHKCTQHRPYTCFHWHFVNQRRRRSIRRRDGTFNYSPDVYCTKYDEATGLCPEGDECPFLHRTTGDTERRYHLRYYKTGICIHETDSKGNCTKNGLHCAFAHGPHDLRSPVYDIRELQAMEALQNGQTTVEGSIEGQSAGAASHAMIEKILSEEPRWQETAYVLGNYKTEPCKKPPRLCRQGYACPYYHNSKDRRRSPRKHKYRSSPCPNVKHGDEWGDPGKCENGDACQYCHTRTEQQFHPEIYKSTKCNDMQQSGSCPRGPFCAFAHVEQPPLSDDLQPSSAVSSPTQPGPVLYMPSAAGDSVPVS

B1: ENSG00000136451:be:win_1751|3pUTR|ENSG00000136451|bound_else_gene|NA|bound_elsewhere_windowed (ssRNA)
RNA: GGGAGUUCUACAGUCCGACGAUCUCACUGGACCACUUUAGUUUAAUCAGAAAUUCCUUUUAGCUGACAACAUUGCUUAAACAGGAUAGUAGUUGGCAAGAUGAAAUGCCAGAAUUAAAACCAAUCAUAAGUAGAACCCACUUCCAACAGAGGAUUGAGCAUCA
B2: chr1:211748167:211748268:-|3pUTR|ENSG00000123684|msi1|FALSE|unique (ssRNA)
RNA: GGGAGUUCUACAGUCCGACGAUCGUACUGCAUCAGUGAGAUGAGUAGGGUUUUUGUUUGGGAUUGUAAGACUAUUAAGAUCCUAGUAAGUCAGUGGUAGUUUACUGUGAUGUGAGCAUUGUAGAUUCCCCCGUUGUCACUAAUCAACAGAGGAUUGAGCAUCA
B3: chr16:23068607:23068708:-|CDS|ENSG00000103404|msi1|total|mutant (ssRNA)
RNA: GGGAGUUCUACAGUCCGACGAUCCCUGCCACAAGGAGCCCUUUCCCACCUGGGAAGAGCAGGACUUCAGACCACAGCUUGAGCCGAGAGGGCUCCAGACAAAGCUUGGGUUCUGACAGAGCCAGCGCCACCUCCACCUCCAAACAACAGAGGAUUGAGCAUCA
B4: chr11:118750849:118750950:-|3pUTR|ENSG00000110367|msi1|FALSE|unique (ssRNA)
RNA: GGGAGUUCUACAGUCCGACGAUCAUUCUAGAAAGUACUUUGGCCUCGUGCUGUAGAGAGCAGAUUUCUAUGGUACCCUGUGUUAGUAAAGGGGCCCAGAAAUCUGGGAUGUACUGUUUGCUGCCACACUGUCUCAUCUAGUACCAACAGAGGAUUGAGCAUCA
B5: chr2:73226876:73226918:+|3pUTR|ENSG00000135632|msi1_unk|FALSE|overlapping (ssRNA)
RNA: GGGAGUUCUACAGUCCGACGAUCAUCUUUAGGGUCUCCACAGACUAACAUUGAAGUCUUCCAGAAACCUCGAGGAGCUGGGCUAGAUACUUCGAGAGUAGCCCUGUCUUGUCCCCUCCUACCCCCAGAUUAGCACCACCCCUCCAACAGAGGAUUGAGCAUCA
B6: chr1:15430058:15430159:+|3pUTR|ENSG00000142634|msi1|total|mutant (ssRNA)
RNA: GGGAGUUCUACAGUCCGACGAUCCCUGGAAGCUACGCGGACUUGCAGAGGUUUUAUUUUUUGGCCUCCGAAUCUGCAGAAAUCCGGAGGCACCGAGCCCAGCGCAGCAGCCUCGGACCCGGAUUGCGUUUGCCUCCGCGGAUACAACAGAGGAUUGAGCAUCA
B7: ENSG00000139428:stop:overlap|stop_codon|ENSG00000139428|stop_codon|NA|stop_codon (ssRNA)
RNA: GGGAGUUCUACAGUCCGACGAUCUAUUACUAUUCUUAACACUUACCUGUUCCUGGCUACCAUUUCUCCAUGGCGGGCCUGACUAGGUUUGCUCUGGAAUUAGUCACAGAAAAGGGCCAUACAUUUGCCGAAGAGCUUCAGAAACAACAGAGGAUUGAGCAUCA
B8: chr11:59829272:59829545:-|three_prime_utr|ENSG00000134812|control|control|control (ssRNA)
RNA: GGGAGUUCUACAGUCCGACGAUCAAAAAGCGAAUGCCUGUGAUGCUACCAUAUUCCUGGUAAAAACAUGGAGAACCACUAUGUAGAAUAAAAAUGCAAAGUUCACUGGAGUCUCAACAUCUAUGACUCAUGAAAAUAAAAUUUCAACAGAGGAUUGAGCAUCA
B9: chr1:150220393:150220494:-|3pUTR|ENSG00000143401|msi1_unk|FALSE|overlapping (ssRNA)
RNA: GGGAGUUCUACAGUCCGACGAUCAUUGUAUGUAGAGAAAAAUUUUCAUUGACUCCCAUUGUGGAAUUCCCUAGCAAUUUAUUUAGACUUAAUUUUUUAAAUUCAAGCUUACUGUAUUAGUCAUUUUUAGCCCAUAAUUAAAACCAACAGAGGAUUGAGCAUCA
B10: ENSG00000107863:be:win_1851|CDS|ENSG00000107863|bound_else_gene|NA|bound_elsewhere_windowed (ssRNA)
RNA: GGGAGUUCUACAGUCCGACGAUCUCUUGUGAAAGUCCGAAGUAAUUCUCUGAAAGCUCCUUCCACGCAUGUCACAAAACCAUCAUUUAGCCAGAAAUCAUUUGUUUCUAUCAAAGACCAAAGACCAGUAAAUCACUUGCAUCACAACAGAGGAUUGAGCAUCA
B11: chr4:138171397:138171528:-|3pUTR|ENSG00000151012|msi1|total|mutant (ssRNA)
RNA: GGGAGUUCUACAGUCCGACGAUCAUUAUGGCAAAGAGGAGAGAAAGAAAUUUAUUUUACAUUGACAUUGCAUUGCUUCCCCUCCGAUACCAAUUCCGAUAACAAACACUCAUGCUUUAAUGGAUUAUACCCAGAGCACUUUGACAACAGAGGAUUGAGCAUCA
B12: chr1:150647640:150647741:-|3pUTR|ENSG00000143457|unk|FALSE|unique (ssRNA)
RNA: GGGAGUUCUACAGUCCGACGAUCAGAUUCAAUUACCUGGAUGUCAAAGUCCUAGAGCCAGAAAUAUAUUCUCUCAUCCCUCUUAGCAUUCUCUUGCUCCCUCAUUCACUAGGGCAAAUGUCUAAAUGAAGAAAAGUCUCUCUCCAACAGAGGAUUGAGCAUCA
B13: chr3:120327094:120327202:-|3pUTR|ENSG00000163428|unk|total|mutant (ssRNA)
RNA: GGGAGUUCUACAGUCCGACGAUCGAAGAGAAGUCACCAAACACCCCGGGACAGUCCCCGGCCCCGAAAGCCCUUUAAAGUAACCGUGAAUUGUUUUAAAAUUAAGUUAUUGAGUGGCCUACUGACUACCAUCCAAAAACCUUUCAACAGAGGAUUGAGCAUCA
B14: chr12:13219749:13219850:+|3pUTR|ENSG00000134531|unk|FALSE|unique (ssRNA)
RNA: GGGAGUUCUACAGUCCGACGAUCACAACAGUGGAUGGGGAGGAAGAACAGACUUUUGAGCUCUUCCCAAUAUAGGAAUGUGUUAGUUCUAAAAAUUUUCUUAAGUUGUUUGCUUGGAACUCAGAGUAUAUUUUUCCAUACGAACAACAGAGGAUUGAGCAUCA

The assay deals with T1, UNK ZnF1-6 (called full-length). Description: nsRBNS (natural sequence RNA bind-n-seq); RBNS binding buffer (assumed for nsRBNS): 25 mM Tris pH 7.5, 150 mM KCl, 3 mM MgCl2, 0.01% Triton X-100, 500 ug/ml BSA, 20 U/ml SUPERase-In, 4 C; UNK is unkempt and MSI1 is Musashi-1; names of the RNAs are library labels; protein concentration not given here; high values mean tight binding.
B1 showed a binding signal of 3.27 enrichment R. The same measure for B2: 0.481 enrichment R; for B3: 0.71 enrichment R; for B4: 0.975 enrichment R. With B5, the binding signal is 1.22 enrichment R.

B6 displayed a binding signal of 0.644 enrichment R.

Turning to B7, the binding signal is 2.64 enrichment R. As for B8, the binding signal was found to be 0.443 enrichment R. The same measure for B9: 228 enrichment R. For B10, the binding signal was determined as 0.592 enrichment R. Turning to B11, the binding signal amounted to 0.489 enrichment R. The same measure for B12: 0.623 enrichment R; for B13: 0.574 enrichment R.

B14 registered a binding signal of 5.89 enrichment R.

The values above are taken from publication PMC12136788.
